# In the supplement of paper PMC8728848:
# The other results are listed elsewhere or left out.
# B1: P-Selectin (Homo sapiens), P16109 (protein)
# chain: MANCQIAILYQRFQRVVFGISQLLCFSALISELTNQKEVAAWTYHYSTKAYSWNISRKYCQNRYTDLVAIQNKNEIDYLNKVLPYYSSYYWIGIRKNNKTWTWVGTKKALTNEAENWADNEPNNKRNNEDCVEIYIKSPSAPGKWNDEHCLKKKHALCYTASCQDMSCSKQGECLETIGNYTCSCYPGFYGPECEYVRECGELELPQHVLMNCSHPLGNFSFNSQCSFHCTDGYQVNGPSKLECLASGIWTNKPPQCLAAQCPPLKIPERGNMTCLHSAKAFQHQSSCSFSCEEGFALVGPEVVQCTASGVWTAPAPVCKAVQCQHLEAPSEGTMDCVHPLTAFAYGSSCKFECQPGYRVRGLDMLRCIDSGHWSAPLPTCEAISCEPLESPVHGSMDCSPSLRAFQYDTNCSFRCAEGFMLRGADIVRCDNLGQWTAPAPVCQALQCQDLPVPNEARVNCSHPFGAFRYQSVCSFTCNEGLLLVGASVLQCLATGNWNSVPPECQAIPCTPLLSPQNGTMTCVQPLGSSSYKSTCQFICDEGYSLSGPERLDCTRSGRWTDSPPMCEAIKCPELFAPEQGSLDCSDTRGEFNVGSTCHFSCDNGFKLEGPNNVECTTSGRWSATPPTCKGIASLPTPGLQCPALTTPGQGTMYCRHHPGTFGFNTTCYFGCNAGFTLIGDSTLSCRPSGQWTAVTPACRAVKCSELHVNKPIAMNCSNLWGNFSYGSICSFHCLEGQLLNGSAQTACQENGHWSTTVPTCQAGPLTIQEASTSITAYKSEGESAEFSFPLNLGEESLQGELRWKAEKAPSSQSWITFSLKNQKVSVQKSTSNPKFQLSETLPLTLQIPQVSLQFAGSGNLTLTLDRGILYQEVNLVVMKVTQPDSNTLTCEVMGPTSPKMRLILKQENQEARVSRQEKVIQVQAPEAGVWQCLLSEGEEVKMDSKIQVLSKGLNSGGGSGGGTGGGDLAPQMLRELQETNAALQDVRELLRQQVKEITFLKNTVMECDACGLDRNLPPLAPLGPHPETLVKVKDAEDQLGARVGYIELDLNSGKILESFRPEERFPMMSTFKVLLCGAVLSRIDAGQEQLGRRIHYSQNDLVEYSPVTEKHLTDGMTVRELCSAAITMSDNTAANLLLTTIGGPKELTAFLHNMGDHVTRLDRWEPELNEAIPNDERDTTMPVAMATTLRKLLTGELLTLASRQQLIDWMEADKVAGPLLRSALPAGWFIADKSGAGERGSRGIIAALGPDGKPSRIVVIYTTGSQATMDERNRQIAEIGASLIKHWGPDYKDHDGDYKDHDIDYKDDDDKGPHHHHHH
# Key:
# Assay in all cases: glycan array binding signal (z-score within array); higher = stronger binding
# Settings in all cases: glycan notation: IUPAC condensed, linker removed
# [1] = biological target: Fuc(a1-2)[GalNAc(a1-3)]Gal(b1-4)[Fuc(a1-3)]GlcNAc
# Method in brief: (§1)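 Glycan array data were curated from 3228 arrays in the Consortium for Functional Glycomics database and kept only where the protein sequence was available. Glycan names were converted to IUPAC-condensed notation, and columns mapping to the same glycan were averaged. The binding signal is a within-array Z-score, averaged across arrays of the same protein sequence at different concentrations or buffers and across linkers. Negative Z-scores can be read as non-binding.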
# [2] = biological target: Fuc(a1-2)[GalNAc(a1-4)]Gal(b1-4)GlcNAc
# Method in brief: as §1
# [3] = biological target: Fuc(a1-2)[GalNAc(b1-3)]Gal
# Method in brief: as §1
# [4] = biological target: Fuc(a1-3)GlcNAc
# Method in brief: as §1
# [5] = biological target: Fuc(a1-3)[Gal(b1-4)]Glc6S
# Method in brief: as §1
# [6] = biological target: Fuc(a1-3)[Gal(b1-4)]GlcNAc
# Method in brief: as §1
# [7] = biological target: Fuc(a1-3)[Gal(b1-4)]GlcNAc(b1-2)Man(a1-3)[Fuc(a1-3)[Gal(b1-4)]GlcNAc(b1-2)Man(a1-6)]Man(b1-4)GlcNAc(b1-4)GlcNAc
# Method in brief: as §1
# [8] = biological target: Fuc(a1-3)[Gal(b1-4)]GlcNAc(b1-2)Man(a1-6)[Gal(b1-4)GlcNAc(b1-2)Man(a1-3)]Man(b1-4)GlcNAc(b1-4)GlcNAc
# Method in brief: as §1
# [9] = biological target: Fuc(a1-3)[Gal(b1-4)]GlcNAc(b1-3)Gal(b1-3)[Fuc(a1-4)]GlcNAc
# Method in brief: as §1
# [10] = biological target: Fuc(a1-3)[Gal(b1-4)]GlcNAc(b1-4)Gal(b1-4)[Fuc(a1-3)]GlcNAc
# Method in brief: as §1
# [11] = biological target: Fuc(a1-3)[Gal(b1-4)]GlcNAc(b1-4)Gal(b1-4)[Fuc(a1-3)]GlcNAc(b1-4)Gal(b1-4)[Fuc(a1-3)]GlcNAc
# Method in brief: as §1
# [12] = biological target: Fuc(a1-3)[Gal(b1-4)]GlcNAc6S
# Method in brief: as §1
# [13] = biological target: Fuc(a1-3)[Gal3S(b1-4)]Glc6S
# Method in brief: as §1
# [14] = biological target: Fuc(a1-3)[Gal3S(b1-4)]GlcNAc
# Method in brief: as §1
# [15] = biological target: Fuc(a1-3)[Gal3S(b1-4)]GlcNAc6S
# Method in brief: as §1
# [16] = biological target: Fuc(a1-3)[GalNAc(b1-4)]GlcNAc
# Method in brief: as §1
# [17] = biological target: Fuc(a1-4)GlcNAc
# Method in brief: as §1
# [18] = biological target: Fuc(b1-3)GlcNAc
# Method in brief: as §1
# [19] = biological target: Gal(a1-2)Gal
# Method in brief: as §1
# [20] = biological target: Gal(a1-3)Gal
# Method in brief: as §1
# [21] = biological target: Gal(a1-3)Gal(b1-3)GlcNAc
# Method in brief: as §1
# [22] = biological target: Gal(a1-3)Gal(b1-4)Glc
# Method in brief: as §1
# [23] = biological target: Gal(a1-3)Gal(b1-4)GlcNAc
# Method in brief: as §1
# [24] = biological target: Gal(a1-3)Gal(b1-4)[Fuc(a1-3)]GlcNAc
# Method in brief: as §1
# [25] = biological target: Gal(a1-3)GalNAc
# Method in brief: as §1
# [26] = biological target: Gal(a1-3)[Gal(a1-4)]Gal(b1-4)GlcNAc
# Method in brief: as §1
# [27] = biological target: Gal(a1-4)Gal(b1-4)Glc
# Method in brief: as §1
# [28] = biological target: Gal(a1-4)Gal(b1-4)GlcNAc
# Method in brief: as §1
# [29] = biological target: Gal(a1-4)GlcNAc
# Method in brief: as §1
# [30] = biological target: Gal(a1-6)Glc
# Method in brief: as §1
# [31] = biological target: Gal(b1-2)Gal
# Method in brief: as §1
# [32] = biological target: Gal(b1-3)Gal
# Method in brief: as §1
# [33] = biological target: Gal(b1-3)Gal(b1-4)GlcNAc
# Method in brief: as §1
# [34] = biological target: Gal(b1-3)GalNAc
# Method in brief: as §1
# [35] = biological target: Gal(b1-3)GalNAc(b1-3)Gal(a1-4)Gal(b1-4)Glc
# Method in brief: as §1
# [36] = biological target: Gal(b1-3)GalNAc(b1-4)Gal(b1-4)Glc
# Method in brief: as §1
# [37] = biological target: Gal(b1-3)GalNAc(b1-4)[Neu5Ac(a2-3)]Gal(b1-4)Glc
# Method in brief: as §1
# [38] = biological target: Gal(b1-3)GlcNAc
# Method in brief: as §1
# [39] = biological target: Gal(b1-3)GlcNAc(b1-2)Man(a1-3)[Gal(b1-3)GlcNAc(b1-2)Man(a1-6)]Man(b1-4)GlcNAc(b1-4)GlcNAc
# Method in brief: as §1
# [40] = biological target: Gal(b1-3)GlcNAc(b1-3)Gal(b1-3)GlcNAc
# Method in brief: as §1
# [41] = biological target: Gal(b1-3)GlcNAc(b1-3)Gal(b1-4)Glc
# Method in brief: as §1
# [42] = biological target: Gal(b1-3)GlcNAc(b1-3)Gal(b1-4)GlcNAc
# Method in brief: as §1
# [43] = biological target: Gal(b1-3)[Fuc(a1-4)]GlcNAc
# Method in brief: as §1
# [44] = biological target: Gal(b1-3)[Fuc(a1-4)]GlcNAc(b1-3)Gal(b1-3)[Fuc(a1-4)]GlcNAc
# Method in brief: as §1
# [45] = biological target: Gal(b1-3)[Fuc(a1-4)]GlcNAc(b1-3)Gal(b1-4)GlcNAc
# Method in brief: as §1
binder,measurement,setting,value
B1,glycan array binding signal (z-score),[1],0.749
same,glycan array binding signal (z-score),[2],-0.222
same,glycan array binding signal (z-score),[3],0.099
same,glycan array binding signal (z-score),[4],-0.438
same,glycan array binding signal (z-score),[5],0.039
same,glycan array binding signal (z-score),[6],-0.195
same,glycan array binding signal (z-score),[7],-0.157
same,glycan array binding signal (z-score),[8],-0.533
same,glycan array binding signal (z-score),[9],-0.252
same,glycan array binding signal (z-score),[10],-0.287
same,glycan array binding signal (z-score),[11],-0.461
same,glycan array binding signal (z-score),[12],-0.008
same,glycan array binding signal (z-score),[13],0.611
same,glycan array binding signal (z-score),[14],-0.026
same,glycan array binding signal (z-score),[15],1.4
same,glycan array binding signal (z-score),[16],-0.262
same,glycan array binding signal (z-score),[17],-0.307
same,glycan array binding signal (z-score),[18],-0.377
same,glycan array binding signal (z-score),[19],-0.189
same,glycan array binding signal (z-score),[20],-0.179
same,glycan array binding signal (z-score),[21],-0.405
same,glycan array binding signal (z-score),[22],0.321
same,glycan array binding signal (z-score),[23],-0.39
same,glycan array binding signal (z-score),[24],-0.336
same,glycan array binding signal (z-score),[25],-0.071
same,glycan array binding signal (z-score),[26],-0.514
same,glycan array binding signal (z-score),[27],-0.252
same,glycan array binding signal (z-score),[28],-0.285
same,glycan array binding signal (z-score),[29],-0.061
same,glycan array binding signal (z-score),[30],-0.187
same,glycan array binding signal (z-score),[31],-0.24
same,glycan array binding signal (z-score),[32],-0.262
same,glycan array binding signal (z-score),[33],-0.454
same,glycan array binding signal (z-score),[34],-0.218
same,glycan array binding signal (z-score),[35],-0.313
same,glycan array binding signal (z-score),[36],-0.365
same,glycan array binding signal (z-score),[37],-0.268
same,glycan array binding signal (z-score),[38],-0.289
same,glycan array binding signal (z-score),[39],1.76
same,glycan array binding signal (z-score),[40],-0.386
same,glycan array binding signal (z-score),[41],-0.271
same,glycan array binding signal (z-score),[42],-0.367
same,glycan array binding signal (z-score),[43],-0.24
same,glycan array binding signal (z-score),[44],-0.189
same,glycan array binding signal (z-score),[45],-0.346
